T1: RBFOX1 RRM RbFoxmut (Fox-RRM*) (Homo sapiens, UniProt Q9NWB1 109-208, R118D;E147R;N151S;E152T)
T1 sequence: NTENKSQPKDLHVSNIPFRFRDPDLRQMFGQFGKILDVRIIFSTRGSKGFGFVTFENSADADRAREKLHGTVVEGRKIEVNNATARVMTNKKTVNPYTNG

B1: GAAAAUA (DNA:RNA)
RNA: GGGAGACCGGAAUUCAGAUUGUCCGAAAAUAUUAAAUCCCGUCGUAGCCACCA
DNA 1: CAATCTGAATTCCGGTCTCCC
DNA 2: TGGTGGCTACGACGGGATT
B2: GUUGGGA (DNA:RNA)
RNA: B1 RNA with A26U, A27U, A28G, A29G, U30G
DNA 1: CAATCTGAATTCCGGTCTCCC
DNA 2: TGGTGGCTACGACGGGATT
B3: UCCGCUU (DNA:RNA)
RNA: B1 RNA with G25U, A26C, A27C, A28G, A29C, A31U
DNA 1: CAATCTGAATTCCGGTCTCCC
DNA 2: TGGTGGCTACGACGGGATT
B4: GAGAAAG (DNA:RNA)
RNA: B1 RNA with A27G, U30A, A31G
DNA 1: CAATCTGAATTCCGGTCTCCC
DNA 2: TGGTGGCTACGACGGGATT
B5: UACGGUG (DNA:RNA)
RNA: B1 RNA with G25U, A27C, A28G, A29G, A31G
DNA 1: CAATCTGAATTCCGGTCTCCC
DNA 2: TGGTGGCTACGACGGGATT
B6: GGUGCAC (DNA:RNA)
RNA: B1 RNA with A26G, A27U, A28G, A29C, U30A, A31C
DNA 1: CAATCTGAATTCCGGTCTCCC
DNA 2: TGGTGGCTACGACGGGATT
B7: AAUUCCC (DNA:RNA)
RNA: B1 RNA with G25A, A27U, A28U, A29C, U30C, A31C
DNA 1: CAATCTGAATTCCGGTCTCCC
DNA 2: TGGTGGCTACGACGGGATT
B8: CCAGAUG (DNA:RNA)
RNA: B1 RNA with G25C, A26C, A28G, A31G
DNA 1: CAATCTGAATTCCGGTCTCCC
DNA 2: TGGTGGCTACGACGGGATT
B9: AACGUCG (DNA:RNA)
RNA: B1 RNA with G25A, A27C, A28G, A29U, U30C, A31G
DNA 1: CAATCTGAATTCCGGTCTCCC
DNA 2: TGGTGGCTACGACGGGATT
B10: UUUUCCU (DNA:RNA)
RNA: GGGAGACCGGAAUUCAGAUUGUCCUUUUCCUUUAAAUCCCGUCGUAGCCACCA
DNA 1: CAATCTGAATTCCGGTCTCCC
DNA 2: TGGTGGCTACGACGGGATT
B11: CGGUGAU (DNA:RNA)
RNA: B10 RNA with U25C, U26G, U27G, C29G, C30A
DNA 1: CAATCTGAATTCCGGTCTCCC
DNA 2: TGGTGGCTACGACGGGATT
B12: GGCUUGG (DNA:RNA)
RNA: B1 RNA with A26G, A27C, A28U, A29U, U30G, A31G
DNA 1: CAATCTGAATTCCGGTCTCCC
DNA 2: TGGTGGCTACGACGGGATT
B13: GUACACC (DNA:RNA)
RNA: B1 RNA with A26U, A28C, U30C, A31C
DNA 1: CAATCTGAATTCCGGTCTCCC
DNA 2: TGGTGGCTACGACGGGATT
B14: GUUACCG (DNA:RNA)
RNA: B10 RNA with U25G, U28A, U31G
DNA 1: CAATCTGAATTCCGGTCTCCC
DNA 2: TGGTGGCTACGACGGGATT
B15: CAUCAGU (DNA:RNA)
RNA: B1 RNA with G25C, A27U, A28C, U30G, A31U
DNA 1: CAATCTGAATTCCGGTCTCCC
DNA 2: TGGTGGCTACGACGGGATT
B16: GGAAAAG (DNA:RNA)
RNA: B1 RNA with A26G, U30A, A31G
DNA 1: CAATCTGAATTCCGGTCTCCC
DNA 2: TGGTGGCTACGACGGGATT
B17: CAGCUUA (DNA:RNA)
RNA: B1 RNA with G25C, A27G, A28C, A29U
DNA 1: CAATCTGAATTCCGGTCTCCC
DNA 2: TGGTGGCTACGACGGGATT
B18: CCUUCUC (DNA:RNA)
RNA: B10 RNA with U25C, U26C, C30U, U31C
DNA 1: CAATCTGAATTCCGGTCTCCC
DNA 2: TGGTGGCTACGACGGGATT
B19: CUUGCAG (DNA:RNA)
RNA: B10 RNA with U25C, U28G, C30A, U31G
DNA 1: CAATCTGAATTCCGGTCTCCC
DNA 2: TGGTGGCTACGACGGGATT
B20: UUAACAU (DNA:RNA)
RNA: B10 RNA with U27A, U28A, C30A
DNA 1: CAATCTGAATTCCGGTCTCCC
DNA 2: TGGTGGCTACGACGGGATT
B21: AGCUAAA (DNA:RNA)
RNA: B1 RNA with G25A, A26G, A27C, A28U, U30A
DNA 1: CAATCTGAATTCCGGTCTCCC
DNA 2: TGGTGGCTACGACGGGATT
B22: UGGAAGA (DNA:RNA)
RNA: B1 RNA with G25U, A26G, A27G, U30G
DNA 1: CAATCTGAATTCCGGTCTCCC
DNA 2: TGGTGGCTACGACGGGATT
B23: UGUGGUU (DNA:RNA)
RNA: B10 RNA with U26G, U28G, C29G, C30U
DNA 1: CAATCTGAATTCCGGTCTCCC
DNA 2: TGGTGGCTACGACGGGATT
B24: ACAGCCC (DNA:RNA)
RNA: B10 RNA with U25A, U26C, U27A, U28G, U31C
DNA 1: CAATCTGAATTCCGGTCTCCC
DNA 2: TGGTGGCTACGACGGGATT
B25: AAGCGUG (DNA:RNA)
RNA: B1 RNA with G25A, A27G, A28C, A29G, A31G
DNA 1: CAATCTGAATTCCGGTCTCCC
DNA 2: TGGTGGCTACGACGGGATT
B26: UGGUGGU (DNA:RNA)
RNA: B10 RNA with U26G, U27G, C29G, C30G
DNA 1: CAATCTGAATTCCGGTCTCCC
DNA 2: TGGTGGCTACGACGGGATT
B27: UGGAUGU (DNA:RNA)
RNA: B10 RNA with U26G, U27G, U28A, C29U, C30G
DNA 1: CAATCTGAATTCCGGTCTCCC
DNA 2: TGGTGGCTACGACGGGATT
B28: AUACCAA (DNA:RNA)
RNA: B1 RNA with G25A, A26U, A28C, A29C, U30A
DNA 1: CAATCTGAATTCCGGTCTCCC
DNA 2: TGGTGGCTACGACGGGATT
B29: ACUAGAG (DNA:RNA)
RNA: B1 RNA with G25A, A26C, A27U, A29G, U30A, A31G
DNA 1: CAATCTGAATTCCGGTCTCCC
DNA 2: TGGTGGCTACGACGGGATT
B30: CCCACAA (DNA:RNA)
RNA: B1 RNA with G25C, A26C, A27C, A29C, U30A
DNA 1: CAATCTGAATTCCGGTCTCCC
DNA 2: TGGTGGCTACGACGGGATT
B31: ACGCCUC (DNA:RNA)
RNA: B1 RNA with G25A, A26C, A27G, A28C, A29C, A31C
DNA 1: CAATCTGAATTCCGGTCTCCC
DNA 2: TGGTGGCTACGACGGGATT

Positions count from the first letter of the chain named. Some of the results follow.

This assay addresses T1, RBFOX1 RRM RbFoxmut (Fox-RRM*). Put plainly: EMSA; HiTS-Eq, 1 nM pool, 10 min; buffer printed only for the single-RNA assays: 10 mM Tris pH 7.5, 150 mM NaCl, 3.4 mM EDTA, 0.001% NP-40, 30 C. The settings on record: tags: His6 N-terminal (pET28a); label: 5' 32P. The method, boiled down:
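Purified wild-type or mutant RbFox RRM at increasing concentrations was equilibrated with 1 nM of 5′-radiolabelled RNA carrying 7 randomized nucleotides for 10 min in 50 µL. Unbound RNA was separated by 8% native PAGE and sequenced. Relative association constants came from read-count changes of each RNA species compared with the control reaction, normalised to the cognate motif.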
Consider B1, for which the binding signal is 0.086 KA relative to UGCAUGU.
Consider B2, for which the binding signal was 0.0849 KA relative to UGCAUGU.
As for B3, the binding signal was 0.073 KA relative to UGCAUGU.
As for B4, the figure is 0.105 KA relative to UGCAUGU; as for B5, 0.107 KA relative to UGCAUGU; as for B6, 0.0734 KA relative to UGCAUGU.
For B7, the binding signal was 0.0566 KA relative to UGCAUGU.
As for B8, the figure is 0.133 KA relative to UGCAUGU; as for B9, 0.103 KA relative to UGCAUGU.
Turning to B10, the binding signal is 0.0613 KA relative to UGCAUGU.
As for B11, the figure is 0.085 KA relative to UGCAUGU; as for B12, 0.226 KA relative to UGCAUGU; as for B13, 0.0721 KA relative to UGCAUGU.
Consider B14, for which the binding signal is 0.0955 KA relative to UGCAUGU.
In the case of B15 it was 0.0808 KA relative to UGCAUGU; in that of B16, 0.069 KA relative to UGCAUGU; in that of B17, 0.124 KA relative to UGCAUGU.
In the case of B18 it was 0.0683 KA relative to UGCAUGU; in that of B19, 0.0944 KA relative to UGCAUGU; in that of B20, 0.0882 KA relative to UGCAUGU.
As for B21, the figure is 0.121 KA relative to UGCAUGU; as for B22, 0.0987 KA relative to UGCAUGU.
Regarding B23, the binding signal is 0.151 KA relative to UGCAUGU.
In the case of B24 it was 0.0594 KA relative to UGCAUGU; in that of B25, 0.146 KA relative to UGCAUGU.
As for B26, the figure is 0.161 KA relative to UGCAUGU; as for B27, 0.756 KA relative to UGCAUGU.
In the case of B28 it was 0.0869 KA relative to UGCAUGU; in that of B29, 0.128 KA relative to UGCAUGU; in that of B30, 0.0417 KA relative to UGCAUGU.
With B31, the binding signal is 0.0387 KA relative to UGCAUGU.
